# Assay results as given in the RNAGym collection of RNA variant scans (doi:10.7554/elife.90254).
# The source gives no read counts; variants with many changes may rest on few reads.
# B1: LINE1-mini (parent)
# chain: GGCAGAGCUCAACACAGCGUGGCAAAGUGGCUGUGGCUAGACUGCC
# Variants of: B1
# Experiment: self-cleavage, relative activity (ratio to wild type); higher = more cleavage; in vitro, sequencing; the parent is a self-cleaving ribozyme
row,Variant,self-cleavage
1,GGCAAAAAUCAACACCACGUGGGAAAGUGGUUAUGGCUAAACUGCC [G5A G7A C8A A16C G17A C23G C31U G33A G40A],0.19
2,GGCAAAACUCAAGACAGCGUGGCAAAGUGGCUGUGGCUAGAGUGCC [G5A G7A C13G C42G],0.16
3,GGCAAAACUCAACAAAGCGUGGCAAAGUGGCUUUGGCUAGACUGCC [G5A G7A C15A G33U],0.22
4,GGCAAAACUCAACAGAGCGUGGCAAAGUGGCUGUGGCUAGACUGCC [G5A G7A C15G],0.24
5,GGCAAAACUCAACAUAGCGUGGCAAAGUUUCUGUGGCUAGACUGCC [G5A G7A C15U G29U G30U],0.19
6,GGCAAAACUCAACACAGGGUGGCAAAGUGGCUGUGGCUAGACUGCC [G5A G7A C18G],0.15
7,GGCAAAACUCAACACAUCCUGGCAAAGUGGCUUUGGCCAGACUGCC [G5A G7A G17U G19C G33U U38C],0.02
8,GGCAAAACUCAACACAGCGUGGCAAAGUGGCUGUGCCUAGACUACC [G5A G7A G36C G44A],0.25
9,GGCAAAACACAACACAGCGUGGCAAAGUUGCUGUGGCAAGACUGCC [G5A G7A U9A G29U U38A],0.23
10,GGCAAACCUCAGGACAGAGUGUCAAAGUGGCUGUGGCUAGACUGCC [G5A G7C A12G C13G C18A G22U],0.09
11,GGCAAACCUCAUCACAGCGGGGCAAAGUGGCUGUGGCUAGACUGCC [G5A G7C A12U U20G],0.04
12,GGCAAACCUCAACACAGCGUGGCAAAGUGGCUGUGGCUCGACUGCG [G5A G7C A39C C46G],0.04
13,GGCAAACCUCAACACAGCGUGGCAAAGUGGCUGUGGCUAGUCUGCC [G5A G7C A41U],0.14
14,GGCAAACCUAAACACAGCGUGGCAAAGGGGCUGUGGCUAGACUGCC [G5A G7C C10A U28G],0.03
15,GGCAAACCUCAAGACAGCGUGGCCAAGUGGCUGGGGCUAGACUGCC [G5A G7C C13G A24C U34G],0.04
16,GGCAAACCUCAAGACAGCGUCGCAAAGUGUCGGUGGCUAGACUGCC [G5A G7C C13G G21C G30U U32G],0.1
17,GGCAAACCUCAACACAGAGUGGCAAAGUGGCUGUGGCUAGACUGCC [G5A G7C C18A],0.18
18,GGCAAACCUCAACACAGCGUGGCAAAGUGGCUGUGGCUAGACUGCU [G5A G7C C46U],0.05
19,GGCAAACCUCAACACACCGUGUCAAAGUGGCUUUGGCUAGACUGCC [G5A G7C G17C G22U G33U],0.13

row,Variant,self-cleavage
1,GGCAAACCUCAACACACCGUGGCAAAGUGUCUGUGGCUACACUACC [G5A G7C G17C G30U G40C G44A],0.02
2,GGCAAACCUCAACACAGCCUGGCAAAGUGGCUGUGGCUUGACUGCC [G5A G7C G19C A39U],0.04
3,GGCAAACCUCAACACAGCGUGGCAAACUGGCUGUAGCUAGACUGCC [G5A G7C G27C G35A],0.06
4,GGCAAACCUCAACACAGCGUGGCAAAGUCACUGUGGCUAGACUGCA [G5A G7C G29C G30A C46A],0.1
5,GGCAAACCUCAACACAGCGUGGCAAAGUCGCUUUGGCUAGACUGCC [G5A G7C G29C G33U],0.03
6,GGCAAACCCCAACACAGCGUCGCAAAGUGGCUGUGGCUAGGCUGCC [G5A G7C U9C G21C A41G],0.04
7,GGCAAACCUCAACACAGCGUGGCAAAGUGGCUGUGGCUAGACCGCC [G5A G7C U43C],0.07
8,GGCAAAUCUCGACACAGCGUAGCAAAGUGGCUGUGGCGAGACUGCC [G5A G7U A11G G21A U38G],0.01
9,GGCAAAUCUCUACACAGCGUGGCAAAGUGGCUGUGGAUAGACUGCC [G5A G7U A11U C37A],0.01
10,GGCAAAUCUCAACACGGCGUGGCAACGUGGCUGUGGCUAAACUGCU [G5A G7U A16G A26C G40A C46U],0.06
11,GGCAAAUCUCAACACAGCGUGGCAUAGUGACUGUGGCUAGACUGCC [G5A G7U A25U G30A],0.76
12,GGCAAAUCUAAACACUGCGUGAGAAAGUGGCUGUGGCUAGACUGCC [G5A G7U C10A A16U G22A C23G],0.02
13,GGCAAAUCUUACGACAGCGUGCCAAAGUGGCUGUGGCUAGACUGGC [G5A G7U C10U A12C C13G G22C C45G],0.01
14,GGCAAAUCUCAACAAAGCGUGGCAAAGUGGCUGUGGAUAGACUGCC [G5A G7U C15A C37A],0.25
15,GGCAAAUCUCAACACAGCGUGGUAAAGUGGCUGUGGCUAGACUGCC [G5A G7U C23U],0.1
16,GGCAAAUCUCAACACAGCGUGCCAGAGUGGCUGUGGCUAGACUGUC [G5A G7U G22C A25G C45U],0.03
17,GGCAAAUCUCAACACAGCGUGUCAAAGUGGCUGUGGCUAGACUGCC [G5A G7U G22U],0.03
18,GGCAAAUCUCAACACAGCGUGGCAAAGUGGCUGUGGCUAGACUUCC [G5A G7U G44U],0.61
19,GGCAAAUCUCAACACAGCGUGGCAAAGUGGCUGGGGAUAGACUGCC [G5A G7U U34G C37A],0.08

row,Variant,self-cleavage
1,GGCAAAUCUCAACACAGCGUGGCAAAGUGGCUGUGGCAAGAUUGCC [G5A G7U U38A C42U],0.01
2,GGCAAAGCUCAACACAACGUGGCAAAGUGGCUGUGGCUAGACUUCC [G5A G17A G44U],0.02
3,GGCAAAGCUCAACACAUAGUGGCAAAGUGGCUGUGGCUAGACUGCC [G5A G17U C18A],0.13
4,GGCAAAGCUCAACACAUAGUGGCAAAAUGGUUGUGGCUAGACUGCC [G5A G17U C18A G27A C31U],0.03
5,GGCAAAGCUCAACACAUCGUGGAACAGUGGCUGUGGCUAGACUGCC [G5A G17U C23A A25C],0.06
6,GGCAAAGCUCAACACAUCGUGGCAAAGUGGAUGUGGCUAGACUGCC [G5A G17U C31A],0.08
7,GGCAAAGCUCAACACAUCGUGGCAAAGUGGCUGUGGCAACACUUCC [G5A G17U U38A G40C G44U],0.01
8,GGCAAAGCUCAACACAGCAUGGCAAAGUGACUGUGGCUAGACUGCC [G5A G19A G30A],0.22
9,GGCAAAGCUCAACACAGCAUGGCAAAGAGGGUGUGGCUAGACUGCC [G5A G19A U28A C31G],0
10,GGCAAAGCUCAACACAGCAUGGCAAAGCGGCUGUGGCUUGACUGCC [G5A G19A U28C A39U],0.02
11,GGCAAAGCUCAACACAGCAUGGCAAAGUGGCCGUGGCUAGACUGCC [G5A G19A U32C],0.1
12,GGCAAAGCUCAACACAGCCUGGCACAGUGGCUGUGGCUAGACUCCC [G5A G19C A25C G44C],0.05
13,GGCAAAGCUCAACACAGCCUGGAAAAGUUGCUGUGGCUAGACUGCC [G5A G19C C23A G29U],0.05
14,GGCAAAGCUCAACACAGCCUGGCAAAGUGGGUGUGGCUAGACUGCC [G5A G19C C31G],0.05
15,GGCAAAGCUCAACACAGCCUGGCAAAAUGGCUGUGGCUAGACUGGC [G5A G19C G27A C45G],0.03
16,GGCAAAGCUCAACACAGCUUGGCCAAGUGGCUGUGGGUAGACUGCC [G5A G19U A24C C37G],0.02
17,GGCAAAGCUCAACACAGCUUGGCAAAGUGGCUGUGGUUAGACUGCC [G5A G19U C37U],0.03
18,GGCAAAGCUCAACACAGCUUGGCAAAGUGUCUGUGGCUAGACUGCC [G5A G19U G30U],0.16
